Drawing on PubChem BioAssay AID488969 (Vanderbilt High Throughput Screening Facility, 2010), this text covers z-score for 70 molecules.

The full ranking holds about 110,000 compounds; the median of “z-score” is about -0.1, and the highest 2% start at about 2. The list shows a part of the results.

The assay deals with Metabotropic glutamate receptor 8 (Rattus norvegicus) (UniProt P70579). Nature of the assay: mGluR8 Gi/Go-coupled signaling modulation – cell-based, rat, thallium flux, HTS, primary screen (AID 488969). Conditions: HEK293 rat mGluR8, GIRK (G protein-gated inwardly rectifying potassium channel) thallium flux, FluoZin2; at 10 µM; stronger effect = higher value; submaximal glutamate (EC20) added with thallium.
Chain of UniProt P70579 (P70579 whole entry, looked up): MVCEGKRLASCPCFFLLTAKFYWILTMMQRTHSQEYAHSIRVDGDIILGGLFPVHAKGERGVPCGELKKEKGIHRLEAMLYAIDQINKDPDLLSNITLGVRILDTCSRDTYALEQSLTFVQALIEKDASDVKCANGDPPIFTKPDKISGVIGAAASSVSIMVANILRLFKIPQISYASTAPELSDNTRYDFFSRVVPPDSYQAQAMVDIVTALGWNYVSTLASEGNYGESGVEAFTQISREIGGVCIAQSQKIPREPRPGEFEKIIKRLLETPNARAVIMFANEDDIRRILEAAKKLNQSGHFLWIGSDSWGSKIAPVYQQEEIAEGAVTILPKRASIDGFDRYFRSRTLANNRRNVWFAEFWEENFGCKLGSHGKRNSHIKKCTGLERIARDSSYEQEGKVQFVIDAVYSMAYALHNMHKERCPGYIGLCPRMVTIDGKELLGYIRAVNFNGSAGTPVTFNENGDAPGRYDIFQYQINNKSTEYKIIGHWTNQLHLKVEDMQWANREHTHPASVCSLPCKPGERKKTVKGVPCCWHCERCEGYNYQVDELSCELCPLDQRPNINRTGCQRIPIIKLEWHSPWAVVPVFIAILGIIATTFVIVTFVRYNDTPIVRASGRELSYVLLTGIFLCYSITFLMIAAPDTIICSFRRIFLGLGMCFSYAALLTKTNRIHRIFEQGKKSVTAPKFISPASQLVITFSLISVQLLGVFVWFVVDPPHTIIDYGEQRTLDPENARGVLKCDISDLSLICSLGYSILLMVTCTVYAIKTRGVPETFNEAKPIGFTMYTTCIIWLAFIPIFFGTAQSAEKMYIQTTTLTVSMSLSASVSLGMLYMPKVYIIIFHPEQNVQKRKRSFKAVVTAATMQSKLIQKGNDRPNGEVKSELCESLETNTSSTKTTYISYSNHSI
Molecule `CN(C)C(=O)C1(c2ccccc2)CCN(S(=O)(=O)c2ccccc2)CC1` displayed a z-score of 0.0763. On to `O=C(Nc1ccncc1)c1ccc(F)cc1`, for which the z-score was -0.0387. The value for `CC(=O)N1C(=O)c2cccc3cccc(c23)C(=O)N1C(C)=O` was 0.73; that for `O=C(CSc1nnc(-c2cccs2)n1-c1ccccc1)N1CCOCC1` was -0.174. The value for `C=C(C)c1cccc(C(C)(C)NC(=O)N2CCCC2)c1` was -0.0205; that for `O=C(Nc1c(F)cc(F)cc1Br)c1cc2nc(C(F)F)cc(C(F)F)n2n1` was -0.371. Consider `O=C(CS(=O)(=O)c1cn(Cc2ccc(Cl)cc2)c2ccccc12)N1CCCC1`, for which the z-score is -0.128. Molecule `CCN(CCNC(=O)C1CCN(Cc2nc(-c3cccc(Cl)c3)oc2C)CC1)c1ccccc1` gave a z-score of 1.25. In the case of `COc1ccc(NCC(=O)N/N=C/c2c(C)nn(Cc3ccccc3)c2Cl)cc1`, the z-score was -0.0241. The value for `Cc1cc(-n2c(C)cc(C(=O)CSc3ncnc4ccccc34)c2C)no1` was 0.406; that for `COc1ccc(Br)cc1-c1noc(-c2ccccc2)n1` was -0.0746; that for `C#CCN1C(=O)C(O)(CC(=O)c2ccc3c(c2)OCCO3)c2ccccc21` (stereo not given) was -0.134. As to `Cc1ccc(NC(=O)c2sc(Cl)nc2C)c(C)c1`, the z-score was -0.333. With `O=C(O)COc1ccc(NC(=O)c2ccco2)cc1`, the z-score was found to be 0.0389.

`CC1=C(C(=O)Nc2ccccc2)C(c2ccc(N(C)C)cc2)NC(=O)N1` (stereo not given) showed a z-score of 1.37. Turning to `O=C(CSc1ncccc1-c1nc2ccccc2[nH]1)N1CCCCC1`, the z-score was 0.119. `Cc1ccc(NC(=O)CSc2ncn(-c3ccccc3)n2)cc1C`: the z-score was -0.951. With `O=c1c2cc3c(cc2[nH]c(=S)n1CCN1CCOCC1)OCO3`, the z-score was -0.119. As for `O=C(NCc1ccc2c(c1)OCO2)C1CCCN1C(=O)Nc1ccccc1` (stereo not given), the figure is 0.00954; as for `COc1ccc(Cl)cc1-c1n[nH]c(=S)o1`, 0.331. As to `CC1(C(=O)O)COC(c2ccc([N+](=O)[O-])cc2)OC1` (stereo not given), the z-score is -0.377. As to `COc1ccc(C2N=C(N)N=C(N)N2c2ccccc2)cc1OC` (stereo not given), the z-score is 0.936. For `CCN(CC)CCNC(=O)c1cc2c(=O)n(C)c3ccccc3c2n1C`, the z-score amounted to 1.25. `C=CCc1cccc(/C=N/NC(=O)CCCNc2ccc(C)cc2)c1O`: the z-score was -0.144. Consider `O=C(COC(=O)CCS(=O)(=O)c1ccc(Cl)cc1)Nc1ncc(Cl)cc1Cl`, for which the z-score was -0.291. `CCOC(=O)CCCSc1nc2sc3c(c2c(=O)[nH]1)CCC3`: the z-score is -0.174.

`COc1ccc(-c2nc(-c3ccc(Br)o3)no2)cc1OC` yielded a z-score of 1.2. In the case of `COc1cc(/C=C/c2c([N+](=O)[O-])c(=O)n(C)c(=O)n2C)cc(OC)c1OC`, the z-score is -0.109. For the molecule `COC(=O)N(C)CCCC1(C)C(=O)N(C)c2ccc(O)cc21` (stereo not given), the z-score amounted to 0.151. Regarding `Cn1c(C(=O)NCc2ccccn2)cc2c(=O)n(C)c3ccccc3c21`, the z-score came to 0.138.

Molecule `CCOCc1nnc(NC(=O)CSc2ccc(C)cc2)s1` gave a z-score of 0.219. `Cc1ccnc(NCn2nnc3ccccc32)c1` yielded a z-score of 0.0468.

For `C=CCNc1nc(NC(C)(C)CO)nc(OC)n1`, the z-score was -0.0508. Regarding `Cc1noc(C)c1COC(=O)COc1cccc2c1OC(C)(C)C2`, the z-score was -0.442. In the case of `CC(=O)c1c(C)[nH]c(C(=O)NCCc2ccccc2)c1C`, the z-score was -1.08. In turn, `c1ccc(SCCCCNC2CCCC2)cc1` yielded a z-score of 0.687. As to `O=C(CSc1nc2ccccc2s1)Nc1ccc(N2CCOCC2)c(Cl)c1`, the z-score stood at 0.284. Molecule `CCOc1cccc(OCCOCCn2cnc3ccccc3c2=O)c1` displayed a z-score of 0.0931. As for `CC(C)CC(C(=O)O)N(Cc1ccccc1)Cc1ccccc1` (stereo not given), the figure is -0.132. Regarding `O=C1CN(C(=O)c2ccco2)C(c2ccc(F)cc2)c2cc(Cl)ccc2N1` (stereo not given), the z-score is -0.575. Turning to `CCCCNC(=O)c1cccc(C(=O)NCCCC)c1`, the z-score is -0.0718. Consider `O=C(CSc1nnnn1C1CCCC1)NCc1ccccc1`, for which the z-score was -0.858.

As to `CC1=CC=CC2=NC(=O)CC(C)(C(=O)N(CC(=O)NC3CCCC3)c3ccccc3C)N12` (stereo not given), the z-score is 0.0485. On to `O=C(COC(=O)c1ccc2c(c1)OCO2)NCc1ccc2c(c1)OCO2`, for which the z-score is -0.128. `Cn1c(=O)c2c(nc(N3CCCCC3)n2CCSc2nc3ccccc3o2)n(C)c1=O` came in with a z-score of 0.0376. With `COc1cccc(NC(=O)c2cccc(OC)c2OC)c1`, the z-score was -0.545. The value for `Cn1c(=O)c2c(nc(SCC(=O)OCc3ccccc3)n2C)n(C)c1=O` was 0.701; that for `C=CCN(CC=C)S(=O)(=O)c1ccc(NC(=S)NC(=O)/C=C/c2ccccc2)cc1` was 0.472.

For `O=C(COC(=O)c1cc(-c2ccc(Cl)s2)nc2ccccc12)NCc1ccco1`, the z-score is -0.0527. Take `CCOC(=O)c1c(NC(=O)C2CCCO2)sc(C(N)=O)c1C` (stereo not given): the z-score was -0.0328. For the molecule `COCC(C)NC(=O)CCSc1nc(-c2ccc(OC)cc2)cc(C(F)(F)F)n1` (stereo not given), the z-score was -0.288. Turning to `COc1ccc(OC)c(NC(=O)CSc2nnc(Cc3cccn3C)n2-c2ccc(F)cc2)c1`, the z-score is -0.326. Regarding `C/C(=C\c1ccccc1)CN1CCC(C(=O)N2CCCCC2)CC1`, the z-score was -0.00947. Regarding `O=C(NC(=S)Nc1ccc(N2CCCCC2)cc1)c1ccco1`, the z-score is -1.53. The value for `Cn1c(=O)c2c(O)cc(=O)n(-c3ccccc3)c2n(C)c1=O` was -0.178; that for `COc1cccc(CN(Cc2cccnc2)S(=O)(=O)c2ccc(-n3cnnn3)c(C)c2)c1` was -0.768. On to `CCCCn1c(SCC(=O)NC(C)CC)nc2ccc(N3CCOCC3)cc2c1=O` (stereo not given), for which the z-score was 0.126. `CCOC(=O)/C(N=Nc1c(C)n(C)n(-c2ccccc2)c1=O)=C(\C)O`: the z-score is -1.56. For `Cc1ccccc1CS(=O)(=O)CCC(=O)NCCN1CCN(c2cccc(Cl)c2)CC1`, the z-score was -1.31. With `COc1cccc(C(c2nnnn2CS(=O)(=O)c2ccc(C)cc2)N2CCN(C)CC2)c1OC` (stereo not given), the z-score came to 0.319. For `Cc1ccc(N=CC2=C(O)CC(c3cccc(Cl)c3)CC2=O)cc1` (stereo not given), the z-score is -0.158.

For the molecule `CCS(=O)(=O)c1ccc2c(c1)N(S(C)(=O)=O)CC(C(=O)NC1CC1)O2` (stereo not given), the z-score was -0.433. Take `CCOC(=O)CN1C(=O)C2Cc3ccccc3CN2C1=S` (stereo not given): the z-score is -0.137. Turning to `O=C(Oc1ccc(Cl)c2cccnc12)c1cccc([N+](=O)[O-])c1`, the z-score was 0.0891. On to `COc1ccc(N2C(=O)/C(=C/c3ccc([N+](=O)[O-])cc3)C=C2c2ccccc2)cc1`, for which the z-score is -0.197.

Consider `COc1ccc(C(C)(C)C)cc1NC(=O)c1cncc(Br)c1`, for which the z-score was -0.242.

As for `O=S(=O)(Nc1nc2ccc(S(=O)(=O)N3CCCCC3)cc2s1)c1ccccc1`, the z-score is -0.0175. Take `CC(=O)Nc1ccc(NCC(O)COc2ccccc2)cc1` (stereo not given): the z-score was -0.497. On to `O=C(NCc1cccnc1)c1cc(S(=O)(=O)N2CCCCC2)ccc1Cl`, for which the z-score worked out at 0.175.

As to `O=C(COC(=O)c1cccc(S(=O)(=O)N2CCCCC2)c1)NC1CCCc2ccccc21` (stereo not given), the z-score is -0.538.
